# Data published in the supplement of paper PMC4604168 (melanoma cell lines).
# The other results are listed elsewhere or left out. Most values come without repeats; read them as rough.
# How the values were obtained:
# Experiment in all cases: cell count relative to DMSO control; melanoma cells; higher = more viable cells
# Settings in all cases: library dose: standard library concentration; 72 h
# 501Mel = test system: 501Mel
# A101D = test system: A101D
# A2058 = test system: A2058
# A375 = test system: A375
# 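Further: cells treated in 1,536-well plates, then fixed and DAPI-stained, with nuclei counted from automated high-throughput microscope images.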
Structure (SMILES),cell count (501Mel),cell count (A101D),cell count (A2058),cell count (A375)
"Cc1cc(Nc2cc(N3CCN(C)CC3)nc(/C=C/c3ccccc3)n2)n[nH]1 + O=C(O)C(=O)Nc1sc2c(c1C(=O)O)CCNC2 [TCS401] (first compound 0.2 µM, partner dose 8.33333 µM)",131%,82.6%,90.3%,179%
"Cc1cn(-c2cc(NC(=O)c3ccc(C)c(Nc4nccc(-c5cccnc5)n4)c3)cc(C(F)(F)F)c2)cn1 [nilotinib] + O=S(=O)(c1ccccc1)N(CC(F)(F)F)c1ccc(C(O)(C(F)(F)F)C(F)(F)F)cc1 [T0901317] (first compound 1 µM, partner dose 7 µM)",70.3%,82.9%,116%,116%
"Cc1cc(Nc2cc(N3CCN(C)CC3)nc(/C=C/c3ccccc3)n2)n[nH]1 + CCN(CC)CCCCNc1ncc2cc(-c3cc(OC)cc(OC)c3)c(NC(=O)NC(C)(C)C)nc2n1 [PD173074] (first compound 0.2 µM, partner dose 0.5 µM)",99.1%,92.7%,92.7%,102%
"CC(C)C[C@H](NC(=O)[C@H](Cc1ccccc1)NC(=O)c1cnccn1)B(O)O [Bortezomib] + COc1cc(N2CCC(N3CCN(C)CC3)CC2)ccc1Nc1ncc(Cl)c(Nc2ccccc2S(=O)(=O)C(C)C)n1 [NVP-TAE684] (first compound 0.005 µM, partner dose 0.4 µM)",13.3%,17%,11.5%,64%
"Cc1cc(Nc2cc(N3CCN(C)CC3)nc(/C=C/c3ccccc3)n2)n[nH]1 + O=c1cc(-c2cccc3c2Sc2ccccc2S3)oc(N2CCOCC2)c1 [KU55933] (first compound 0.2 µM, partner dose 5 µM)",97.8%,86.9%,91%,129%
